Results taken from publication PMC4336329 (PLoS ONE, 2015).
The campaign covered roughly 310,000 compounds. About 14,000 (4.5%) showed an effect of 50% or more. Effects have a minus sign here. This is one part of the list.

Each compound was assayed against human ether-à-go-go-related gene (hERG) potassium channel (human, UniProt Q12809) (assay: primary screen, population patch clamp on CHO cells stably expressing hERG).
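Note: peak tail current of the secondary pulse compared with the same well before compound.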

human ether-à-go-go-related gene (hERG) potassium channel, sequence (Q12809 whole entry, looked up): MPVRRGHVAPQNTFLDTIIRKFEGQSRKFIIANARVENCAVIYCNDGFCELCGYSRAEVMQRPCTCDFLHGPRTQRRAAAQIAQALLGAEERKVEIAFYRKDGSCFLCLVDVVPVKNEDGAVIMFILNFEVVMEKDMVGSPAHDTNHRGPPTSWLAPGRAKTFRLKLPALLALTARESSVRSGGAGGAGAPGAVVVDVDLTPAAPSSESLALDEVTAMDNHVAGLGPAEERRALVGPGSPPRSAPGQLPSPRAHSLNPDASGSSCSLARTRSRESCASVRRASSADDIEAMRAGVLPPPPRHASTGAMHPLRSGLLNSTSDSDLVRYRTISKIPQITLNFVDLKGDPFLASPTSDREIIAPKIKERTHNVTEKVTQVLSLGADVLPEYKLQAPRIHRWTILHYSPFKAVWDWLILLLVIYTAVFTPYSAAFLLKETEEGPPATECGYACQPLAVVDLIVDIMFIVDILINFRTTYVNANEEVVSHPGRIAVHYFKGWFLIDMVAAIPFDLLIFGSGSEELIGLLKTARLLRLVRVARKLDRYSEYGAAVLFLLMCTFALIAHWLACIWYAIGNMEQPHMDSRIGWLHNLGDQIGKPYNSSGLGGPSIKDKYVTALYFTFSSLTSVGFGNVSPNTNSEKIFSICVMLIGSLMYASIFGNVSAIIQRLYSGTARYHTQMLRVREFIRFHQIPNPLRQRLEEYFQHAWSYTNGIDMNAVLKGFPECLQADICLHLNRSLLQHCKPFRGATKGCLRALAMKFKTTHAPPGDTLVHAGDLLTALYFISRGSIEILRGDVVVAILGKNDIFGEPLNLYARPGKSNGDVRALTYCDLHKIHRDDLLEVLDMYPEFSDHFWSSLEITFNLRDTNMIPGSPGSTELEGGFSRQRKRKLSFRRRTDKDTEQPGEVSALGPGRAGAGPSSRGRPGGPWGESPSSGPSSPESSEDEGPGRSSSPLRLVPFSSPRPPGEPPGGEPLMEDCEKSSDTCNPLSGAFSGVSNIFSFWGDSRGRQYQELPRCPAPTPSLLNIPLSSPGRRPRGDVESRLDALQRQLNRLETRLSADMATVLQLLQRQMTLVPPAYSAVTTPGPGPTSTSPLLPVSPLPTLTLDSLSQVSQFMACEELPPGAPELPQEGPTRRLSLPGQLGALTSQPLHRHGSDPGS

Row | SMILES | hERG current change (%, negative = inhibition) at 10uM
1 | Cc1cccc(OCC(=O)Nc2ccccc2C(=O)N2CCOCC2)c1 | 9.7%
2 | O=C(NCc1ccc(F)cc1)C1CCN(S(=O)(=O)c2ccc3c(c2)OCCCO3)CC1 | -23.6%
3 | CC(=O)CCCCn1c(=O)c2c(ncn2C)n(C)c1=O | -1.46%
4 | CCOc1ccc(CN=C(N)N=C(N)N)cc1Cl.Cl | -10%
5 | CCN(CCn1cccn1)Cc1ccccc1OCC(O)CN1CCc2ccccc2C1 (stereo not drawn) | -51.5%
6 | Cc1ccc(/C=C2\CCn3c2nc2cc(C(=O)O)ccc2c3=O)c(C)c1 | 7.99%
7 | Cc1cccc(NC(=O)CN2CCN(C(=O)c3ccc(OCc4cn5ccccc5n4)cc3)CC2)c1C | -46.5%
8 | C/C(CC(=O)NC1CCCCC1)=N\NC(=O)c1ccccc1C | 4.38%
9 | CC(=O)Nc1cccc(C(=O)OCC(=O)NCc2ccc(F)cc2)c1 | -1.75%
10 | CCOC(=O)C1=NNC2C(=O)N(CC)C(=O)C12 (stereo not drawn) | 9.23%
11 | O=C(Nc1ccc(Cl)cn1)C1CCCN1S(=O)(=O)c1ccc(Cl)cc1 (stereo not drawn) | -11.6%
12 | CC1CN(c2nc3ccccc3nc2C(C#N)C(=O)NCc2ccc3c(c2)OCO3)CC(C)O1 (stereo not drawn) | 15.1%
13 | Cc1ccc(S(=O)(=O)NC2(C(F)(F)F)C(=O)Nc3c2c(=O)n(C)c(=O)n3C)cc1 (stereo not drawn) | 18.4%
14 | CCN(CC)c1ccc(N2C(=O)CSC2=S)cc1 | -15.2%
15 | COc1ccccc1CCc1nnc(CCC(=O)NC(C)Cc2ccsc2)o1 (stereo not drawn) | -6.75%
16 | CC(Oc1ccc(Cl)cc1Cl)C(=O)Nc1ncccn1 (stereo not drawn) | -2.67%
17 | CCc1cccc(CC)c1N1C(=O)c2cc(N3CCOCC3)c([N+](=O)[O-])cc2C1=O | -22.1%
18 | CCCCn1c(N)c(N(CC(C)C)C(=O)CSCc2c(C)noc2C)c(=O)[nH]c1=O | 5.89%
19 | c1ccc(CN2CCN(c3nc4ccccc4n4cnnc34)CC2)cc1 | -12.6%
20 | C=CCSC1=C(C#N)C2(CCCCC2)C(C#N)C(=O)N1 (stereo not drawn) | -3.87%
21 | O=C1C=C(c2ccc(O)cc2)C[C@@H](c2ccc3c(c2)OCO3)C1 | -0.255%
22 | O=C(CN(c1ccc(F)cc1)S(=O)(=O)c1ccc2c(c1)OCCO2)NCc1cccnc1 | -12.9%

Row | SMILES | hERG current change (%, negative = inhibition) at 10uM
23 | Cc1c(NC(=O)CCCOc2ccccc2)cccc1[N+](=O)[O-] | -1.48%
24 | CN(C)S(=O)(=O)c1ccc(Cl)c(NC(=O)COC(=O)/C=C/c2cnc3ccccc3n2)c1 | -9.71%
25 | CCCCOC(=O)c1[nH]c2c(c1C)C(=O)CC(c1cc(OC)c(OC)c(OC)c1)C2 (stereo not drawn) | 10.8%
26 | COc1ccc(-c2nn(C)c(=O)c3ccccc23)cc1CNC(=O)C1CCCCC1 | -56.3%
27 | COc1ccc(NC(=O)C2CCCN(S(=O)(=O)c3ccc4[nH]c(=O)ccc4c3)C2)cc1 (stereo not drawn) | 9.08%
28 | NCCCC[C@H]1NC(=O)[C@H](CCC(=O)O)NC(=O)c2cc([N+](=O)[O-])cc(I)c2OCC[C@@H](C(N)=O)NC1=O | 26.6%
29 | CCOc1ccc(C(=O)Cn2cnc3ccccc3c2=O)cc1 | -15.9%
30 | O=c1c2c(-c3cccs3)csc2ncn1-c1ccccc1 | -28.3%
31 | Cc1cccc(C)c1NC(=S)N1CC(C)OC(C)C1 (stereo not drawn) | 5.1%
32 | COc1cccc(C2C(C(=O)c3ccc(C)o3)=C(O)C(=O)N2CCN2CCOCC2)c1 (stereo not drawn) | 32.1%
33 | C[C@@H]1C[C@@H]([C@H](O)CC2CC(=O)NC(=O)C2)C(=O)[C@@H](C)C1 | 15.3%
34 | Cc1ccc(-n2c(-c3ccccc3)n[nH]c2=S)cc1 | 15.6%
35 | Cc1cc(C)cc(Oc2ccc(-c3nnc(-c4ccccc4)o3)cc2[N+](=O)[O-])c1 | 7.94%
36 | O=C1N[C@@H](Cc2ccccc2)C(=O)N2[C@@H]3N(S(=O)(=O)c4ccc(F)cc4)c4ccccc4[C@]3(Br)C[C@@H]12 | -14.3%
37 | Cc1sc2ncn(C(C)C(=O)OC3CCCCC3)c(=O)c2c1C (stereo not drawn) | -18.6%
38 | O=C(Nn1cnc2ccccc2c1=O)c1ccccc1[N+](=O)[O-] | 15%
39 | CCc1ccc(-c2cc3c(=O)n(CC(=O)N4CCCC4)nc(C)n3n2)cc1 | 4.81%
40 | Clc1ccc(C2=Nc3cc(Cl)ccc3OC2)cc1 | 25.9%
41 | O=S(=O)(CCSc1nc2ccccc2o1)Cc1ccccc1 | -0.259%
42 | O=C(O)c1nccnc1C(=O)NCCc1c[nH]c2ccccc12 | -4.91%
43 | COc1ccccc1CC(=O)Nc1cccc(F)c1 | 12.2%
44 | CCC(=O)c1cn(CC(=O)Nc2ccccc2Cl)c2ccccc12 | 21.1%

Row | SMILES | hERG current change (%, negative = inhibition) at 10uM
45 | COCC(=O)Nc1cc(C(=O)Nc2ccccc2C)ccc1Cl | -3.92%
46 | CCOc1ccc(CN(C)C(=O)CNC(=O)c2ccc(Br)o2)cc1OC | -2.55%
47 | CC(C)CC(c1nnnn1CCc1ccccc1)N1CCN(C(=O)c2ccco2)CC1 (stereo not drawn) | -46.6%
48 | COC(=O)CCCC1=CC2=CC(=O)C(C)(OC(=O)c3cccs3)C(=O)C2=CN1C1CCCCC1 (stereo not drawn) | -7.95%
49 | O=S(=O)(Nc1ccc(-c2nc3cccnc3s2)cc1)c1cccs1 | 26.9%
50 | Cc1ccc(SCC(=O)OCC(=O)N2CCN(C(=O)c3ccco3)CC2)c(C)c1 | -41.6%
51 | Cc1cc(Br)ccc1NC(=O)c1ccco1 | 0.934%
52 | Cc1cccc(Cn2c(-c3ccc[nH]c3=O)nc3ccccc32)c1 | -14.9%
53 | O=C(CN1C(=O)C2CC=CCC2C1=O)NC1CCCc2ccccc21 (stereo not drawn) | 3.26%
54 | CCNC(=O)c1ccccc1NC(=O)c1cccc(S(=O)(=O)N2CCOCC2)c1 | -71.5%
55 | O=C(Nc1ccc2[nH]c(=O)[nH]c2c1)c1ccc(Br)o1 | -4.71%
56 | CC(C)NC(=O)c1onc(CSc2ccc(F)cc2)c1C(=O)O | 3.25%
57 | Cc1oc(-c2ccccc2Cl)nc1CSCC(=O)NC1CC1 | -16.1%
58 | Cn1c(SCC(=O)Nc2ccc(Br)cn2)nnc1C1CC1 | 10.3%
59 | CCOC(=O)Cc1c(C)nc2cc(-c3ccc(Cl)cc3)[nH]n2c1=O | 3.69%
60 | Cn1cc(CCC(=O)N2CCCC(C(=O)c3cccc4ccccc34)C2)cn1 (stereo not drawn) | 0.36%
61 | Cc1cc(C)nc(NC(=O)CSc2ccccn2)n1 | 1.08%
62 | CS(=O)(=O)N1CCN(c2ccc(NC(=S)NC(=O)c3ccccc3[N+](=O)[O-])cc2)CC1 | 19.7%
63 | CCOC(=O)C1=C(CSc2nc(-c3ccccc3)ccc2C#N)OC(N)=C(C#N)C1c1ccccc1 (stereo not drawn) | 8.45%
64 | COc1ccc(N(CC(=O)N2CCOCC2)S(=O)(=O)c2ccccc2)cc1Cl | -14.7%
65 | CC(=O)Nc1ccc(S(=O)(=O)N(C)CC(=O)NCCC2=CCCCC2)cc1 | 11.9%
66 | O=C(NCCc1ccccn1)c1ccc(OC2CCN(Cc3ccccn3)CC2)cc1 | 2.88%

Row | SMILES | hERG current change (%, negative = inhibition) at 10uM
67 | O=C(CCC(=O)c1ccc(Cl)s1)Nc1ncccc1O | -28.2%
68 | CC(SCc1ccccc1)C(=O)N/N=C/c1cccs1 (stereo not drawn) | 3.62%
69 | Cc1cc(Nc2cccc(Cl)c2)nc(-c2ccccc2O)n1 | 12.5%
70 | COc1ccc(C2c3c(c(C)c(C)oc3=O)Oc3c(C)c(C)oc(=O)c32)cc1 | 13.7%
71 | CCn1nnc2cc(C(=O)Nc3cc(Cl)ccc3C)ccc21 | -16.7%
72 | Cc1ccc2nc(CSc3nnc(-c4ccco4)n3-c3ccccc3)cc(=O)n2c1 | -21.1%
73 | CCN1CCN(C(=O)c2cc3cc([N+](=O)[O-])ccc3oc2=O)CC1 | -14.4%
74 | CN(C)c1nc(Cl)cc(N2CCOCC2)n1 | 7.67%
75 | C=CCn1cnc2c(c1=O)c1nc3ccccc3nc1n2/N=C/c1cccc(OC)c1OC | -9.74%
76 | Cc1ccc(OCc2nc(C#N)c(N3CCCC3)o2)cc1 | -62.8%
77 | O=C(NC1CCCCC1)C(c1cccnc1)N(C(=O)CCl)c1ccccc1Cl (stereo not drawn) | -4.55%
78 | COC(=O)c1cc(Br)c(=O)n(CCN2CCCC2)c1 | 4.7%
79 | CCCC(=O)N(Cc1cc(=O)[nH]c2ccccc12)c1ccccc1C | 10.2%
80 | Oc1ccccc1N=Cc1c(O)ccc2oc3c(c12)CCCC3 | 18.1%
81 | CC(C)CCOc1ccc(C(=O)N2CCN(c3ncccn3)CC2)cc1 | -9.05%
82 | O=C1NC2(CCCCC2)C(=O)N1CCN1C(=O)c2ccccc2C1=O | 31.2%
83 | O=C(Oc1ccccc1-c1csnn1)c1cccs1 | 17.7%
84 | CC(NC(=O)CCNC(=O)c1ccccc1Cl)c1ccc(-n2ccnc2)cc1 (stereo not drawn) | -17.8%
85 | COc1ccc(OC)c(NC(=O)C2CCCN2S(=O)(=O)c2cccc3nsnc23)c1 (stereo not drawn) | -8.13%
86 | Cc1ccc(-c2nnc(SCC(C)C)n2C)cc1 | -8.23%
87 | NC(=O)c1ccsc1NC(=O)COC(=O)c1cc(=O)[nH]c2ccccc12 | 9.1%
